The whole screen tested about 48,000 compounds, of which about 120 (0.25%) were called active. Inconclusive results (about 4%) are left out. Calls follow the shape of the dose curve; as a rule, active = well fitted activation curve with a large enough effect; inconclusive = small, poorly fitted or top-dose-only effect, or another doubt; inactive = no such curve, though single readings can be large or run the other way. Some of the results follow.
assay: Primary qHTS for Identification of Small Molecule Activators of Huntingtin-Antisense Promoter Activity; conditions: HEK293 HTT-AS promoter firefly luciferase reporter, 24 h; series mostly up to 57.5 µM; activity change, positive = activation: at the top concentration; also: nearly all actives have a fitted effect of over 55% in size
How it was run: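 Firefly luciferase readout (Dual-Glo, 10 min RT) after 24 h, 37 °C compound exposure (final up to 57.5 uM) of HEK293 reporter cells cultured 24 h beforehand; PTC124 at 50 uM final as control inhibitor; activity scaled vehicle 0%, zero RLU -100%.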

Activity change, positive = activation, inactive:
CCCCCCCN(CC)CCCC(O)c1ccc(NS(C)(=O)=O)cc1 (stereo unspecified) -13.7%
CCOc1ccc(C(=O)Nc2cc3c(cc2N2CCCC2)n(C)c(=O)c(=O)n3C)cc1OCC -10.3%
CSc1ccc(CCNC(=O)CCCn2c(=O)c3cccn3c3ccccc32)cc1 -28.2%
CSc1ncc2c(n1)-c1ccccc1N(Cc1ccccc1)S2(=O)=O -10.7%
Cc1ccc2[nH]c3c(=O)n(CC(=O)Nc4ccc(Br)cc4C)ncc3c2c1 -9.08%
O=C1c2[nH]nc(-c3ccc(F)cc3)c2C(c2ccccc2F)N1c1ccccc1 (stereo unspecified) -21.2%
COc1ccc(NC(=O)C2CCCN(S(=O)(=O)c3c(C)[nH]c(=O)[nH]c3=O)C2)c(OC)c1 (stereo unspecified) -9.56%
O=C(NCc1ccc(F)cc1)C(=O)NCC(c1ccc2c(c1)OCO2)N1CCOCC1 (stereo unspecified) -8.52%
Cc1cccc(-c2nc3nc(C)cc(NC(C)c4ccccc4)n3n2)c1 (stereo unspecified) 8.82%
COc1ccc(C(=O)N(Cc2ccco2)Cc2ccc(C)o2)cc1 -9.9%
COc1cc(NS(=O)(=O)c2ccc(NC(=O)c3ccc(Cl)cc3Cl)cc2)nc(OC)n1 -4.95%
CNC(=O)c1c(NC(=O)/C=C/c2ccccc2)sc2c1CCC2 5.14%
Cc1ccc2nc(-c3ccc(NC(=O)COc4ccc(Br)cc4Br)cc3)sc2c1 -0.0451%
CCOc1ccc(NC(=O)Cn2nnc(-c3nc(-c4ccncc4)no3)c2N)cc1 -3.84%
Cc1ccccc1NC(=O)/C(C#N)=C/c1ccc(Cl)cc1Cl -6.78%
CCc1ccc(NCc2cc3cc4c(cc3n(CC(=O)Nc3ccccc3C)c2=O)OCCO4)cc1 -8.56%
CCOC(=O)c1ccc(NC(=O)CC(=O)Nc2ccc3nc4n(c(=O)c3c2)CCCCC4)cc1 -24.2%
Cc1nn2c(C)c(C(=O)NCCc3ccccc3)cnc2c1-c1ccccc1 3.31%
COc1ccc(Cl)cc1NC(=O)c1cnc2sc(N3CCOCC3)nn2c1=O -17.2%
Cc1ccc(CNC(=O)c2cnc3c(-c4ccc(F)cc4)c(C)nn3c2C)o1 -2.96%
CN1CCN(CCNC(=O)c2cnn(-c3ccc(Cl)cc3)c2C2CCN(C(=O)OC(C)(C)C)CC2)CC1 -10.3%
CCN(C(=O)C1CCN(S(=O)(=O)c2c(C)noc2/C=C/c2ccc(C)cc2)CC1)c1cccc(C)c1 -7.3%
CCOc1ccc(-c2nonc2NC(=O)c2oc3ccc(CC)cc3c2C)cc1 -11.3%
CCC(=O)N1CCc2cc(S(=O)(=O)NC(Cc3ccccc3)C(=O)O)ccc21 (stereo unspecified) -1.49%
COc1ccc(NC(=O)CSc2nc3ccccc3c(=O)n2CCC(=O)NC2CCCCC2)c(OC)c1 0.0642%
O=C(CCCCCn1c(=O)c2sccc2n(Cc2ccccc2Cl)c1=O)NCc1ccc2c(c1)OCO2 -13.1%
Cc1ccc(S(=O)(=O)Nc2ccc3nc(-c4cccc(Cl)c4)oc3c2)cc1 -12.6%
COc1ccc(CCNC(=O)C(C)n2nc(C)c3sc4ccccc4c3c2=O)c(OC)c1 (stereo unspecified) -3.47%
Fc1ccc(Nc2nc3ccccc3n3cnnc23)c(F)c1 -0.388%
COc1ccc(NC(=O)c2nc(-c3ccc(C)cc3)n3c2CCCCC3)cc1 -24.3%
COc1cccc(C(=O)N(Cc2nc(-c3ccc(Cl)cc3)no2)C(C)C)c1OC -34.2%
CCSc1nc2ccccc2c(OCc2ccccc2Cl)c1C(=O)OC -4.56%
COc1ccc(Oc2nc3c(c(=O)n(Cc4ccc(Br)cc4)c(=O)n3C)n2C)cc1 12.8% [at 11.5 µM, percent change from vehicle, -100% = no light]
O=C(c1ccc(F)cc1)n1nc(-c2cccnc2)nc1NCc1ccccc1 8.73%
COc1ccc(-n2ccnc(NCCc3ccccc3)c2=O)cc1OC -24.6%
Cc1nc2nc(CNC(=O)c3cccc(F)c3)nn2c(C)c1CCC(=O)Nc1cccc(Cl)c1 -7.8%
Cc1nn(C(C)C(=O)Nc2ccccc2C(F)(F)F)c(=O)c2c1sc1ccccc12 (stereo unspecified) -11.9%
CC(C)(C)c1ccc(C(=O)Nc2c(C(=O)c3ccc(F)cc3)oc3ccccc23)cc1 1.17%
COc1ccccc1CNC(=O)COCc1cc(-c2cccs2)on1 -6.1%
Cc1ccc(N(CC(C)C)S(=O)(=O)c2nnc(NC(=O)C(C)C)s2)cc1 -8.67%
CCOC(=O)C1CCN(c2ncnc3c2c(-c2ccccc2)cn3-c2ccc(Cl)cc2)CC1 -11.5%
CCOc1ccccc1CNS(=O)(=O)c1cc(-c2onc(C)c2C)ccc1OC -26.7%
COc1cnc(NS(=O)(=O)c2ccc(N)cc2)nc1
CCOC(=O)c1c(C)[nH]c(C)c1S(=O)(=O)NCC(=O)NCc1ccccc1C -0.0917%
CCC(=O)N1c2ccccc2CC1C(=O)N1CCN(c2ccccc2F)CC1 (stereo unspecified) -5.95%
Cc1ccc(NC(=O)Cn2c(=O)n(CCCCC(=O)NCc3ccc4c(c3)OCO4)c(=O)c3ccccc32)cc1 -33.2%
Clc1ccccc1CSc1nc(NCCc2ccccc2)c2ccccc2n1 -11.1%
CCOc1ccccc1Oc1nc(C)nc2c1oc1ccccc12 -19.7%
N#Cc1c(C(F)(F)F)cc(-c2cccs2)nc1SCc1ccccc1F -25.3%
CCOc1ccccc1Nc1sc(C(=O)c2ccc(Cl)cc2)c(N)c1S(=O)(=O)c1ccccc1 0%
O=C(O)CCn1c2c(c3ccccc31)C[C@H](NS(=O)(=O)c1ccc(F)cc1)CC2
O=C(CSc1ncc2c(n1)-c1ccccc1N(Cc1ccc(Cl)cc1)S2(=O)=O)c1ccccc1 5.59%
CCN(Cc1ccccc1)C(=O)Cn1ncc2c(=O)oc3ccc(C)cc3c21 -3.99%
Cc1cccc(N2CCN(C(=O)c3ccc4c(c3)N(Cc3cccc(Cl)c3)C(=O)c3ccccc3S4(=O)=O)CC2)c1C -3.59%
CCOc1ccc(NC(=O)CCc2nnc3n(C)c(=O)c4sccc4n23)cc1 -10.8%
O=C(O)CCC(=O)Nc1ccc(S(=O)(=O)Nc2nccs2)cc1 -15%
Cc1cccc(C(=O)NNc2ncnc3c2cnn3-c2ccc(C)c(Cl)c2)c1 -33.2%
CC(CNC(=O)CCCn1c(=O)c2cccn2c2ccc(F)cc21)c1ccccc1 (stereo unspecified) -22.8%
Cc1ccc(-c2nc(CS(=O)CC(=O)NCCc3ccc(Cl)cc3)c(C)o2)cc1 (stereo unspecified) -20.4%
COc1cc(NC(=O)C2Cc3ccccc3N2C(=O)c2ccccc2)cc(OC)c1 (stereo unspecified) -24.9%
CCOc1ccc(-n2nc(CO)c(C(=O)NCC(C)O)n2)cc1 (stereo unspecified) 3.29%
